The source gives no read counts; variants with many changes may rest on few reads.

From the RNAGym collection of RNA variant scans (doi:10.1093/nar/gkz1192) come the findings set out here.

B1: CPEB3 Ribozyme (parent)
chain: UAACAGGGGGCCACAGCAGAAGCGUUCACGUCGCAGCCCCUGUCAGAUUCUGGUGAAUCUGCGAAUUCUGCUGUAUAUCUC

The series covers variants of B1. As to the kind of experiment: self-cleavage, relative activity (ratio to wild type); higher = more cleavage; in vitro, sequencing. The procedure, abridged:
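Relative activity was defined as the cleaved/total read fraction for a variant divided by the same fraction for the unmutated ribozyme. CPEB3 self-cleaving ribozyme libraries were made by rounds of error-prone PCR, barcoded, and transcribed in vitro with T7 RNA polymerase for 5 hours at 37°C, and cleavage ran through transcription plus a 15 min DNase I step before EDTA. Illumina sequencing of template-switched reverse transcripts gave the reads, and DNA sequencing mapped the barcodes. Averages come from three batches, using variants with at least 5 reads.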
On to G33A U41A A45G U60C C71U, for which the self-cleavage was found to be 0.06. As for G33A A56G A57C, the self-cleavage was determined as 0.47. On to U31C U43A U54C U67C U69C, for which the self-cleavage amounted to 0.1. As to U31C U54C A57G A64G, the self-cleavage was determined as 0.2. On to U31G A64G C81U, for which the self-cleavage came to 0.32. Then C32G A47G U58C C59A A64U U67A, with 0.08; and U31G A35G U48C C62A, with 0.16. Take U31C C40U U72C: the self-cleavage stood at 0.55. With U31C U41C A57G U58A U60C C81A the figure was 0.09; with U31C U49A A77G, 0.49. For the variant C32G G36U U49C A56C, the self-cleavage is 0.06. For the variant U31G U48C U51C U60C, the self-cleavage is 0.19.

For the variant C32U U51C A56U, the self-cleavage worked out at 0.36. In the case of U31C U41C U51C G55A U80A, the self-cleavage is 0.66.

Turning to U31G U41C U69C, the self-cleavage is 0.13. U31C G52A U72C U80C: the self-cleavage is 1.2. U31C U43A U51G A57G U67C: the self-cleavage came out at 0.14. Then U31G U41C U51C, with 0.5; and U31G U41A U72A, with 0.12.

For the variant G33A U51C A56G U80C, the self-cleavage is 0.1.

Turning to G33A A35G A56U C79A, the self-cleavage came to 0.18. Regarding U31C G36C G52U A65U U74C, the self-cleavage turned out to be 0.08. Then U31C C32G A57U, with 0.16; and U31C G33U U69A U74C C79U, with 0.12; and U31G U49C U66C U78A, with 0.1. Turning to C32U U43G U76C, the self-cleavage came out at 0.3. Take U31G A45G U78C: the self-cleavage is 0.42. Take U31C G36A A45G U74A: the self-cleavage is 0.18.

For G33A A35G U54C U60A, the self-cleavage is 0.08. Regarding G33A U60C U80A, the self-cleavage turned out to be 0.19.

As for G33A U60C U80C, the self-cleavage stood at 0.15. With U31C U41A U60C A64G the figure was 0.15. Turning to U31C U58G A65U, the self-cleavage was determined as 0.15.

Consider U31C U69A U72C, for which the self-cleavage came to 0.24. With C32A U51C G52A, the self-cleavage came to 0.12. Then G33C A35G U41C G63A U67C, with 0.08; and U31C U49A C79U, with 0.54. Consider U31C U43C U51C, for which the self-cleavage came to 0.45. Regarding G33A U48C U72C, the self-cleavage amounted to 0.08. Then U31C G52A U60C U80C, with 0.7; and G33A U54A U69A, with 0.49.

For C32G C38U U60A U74G, the self-cleavage is 0.09. Then U31C U60C G73U, with 0.68. Turning to G33A U43A U66C, the self-cleavage was 0.28. As for U31C U41A A57G U60C, the self-cleavage was 0.15. Then U31C U51C A56U A64U, with 0.15; and C32U U41G U49C U67C, with 0.09; and U31C A65G U66C U78C, with 0.08. Consider C32A A65G U66C, for which the self-cleavage was 0.17. As for C32U C59A U67A, the self-cleavage was determined as 0.14. With C32A U60C A64G U74C the figure was 0.13; with U31C U51A A77U, 0.83; with U31G U43C C59U A64U G73A U78C, 0.1. As to U31C U54C C62G U67C C68G, the self-cleavage worked out at 0.22.

As for C32A C40U U60C, the self-cleavage is 0.14. As for U31G U43C A57G U72A, the self-cleavage turned out to be 0.22.

U31G A75G U80C: the self-cleavage was 0.18. U31C G33A U49A A57G A65G U69G U78C: the self-cleavage is 0.04. C32A U49A C62G: the self-cleavage worked out at 0.12. With U31C G42A A65G A75G the figure was 0.06; with U31C G36U G55C, 0.12. Then C32U C39G A45U A65U, with 0.08; and U31C C32U U51A C59U U76A, with 0.06; and U31C U58C U66A G73A, with 0.18. With U31C U48A A77C the figure was 0.15; with U31C U41A A56U U58A U66G U69C U78C, 0.06; with U31G U41C U72A, 0.37. In the case of U31C U54C A56G U72C, the self-cleavage is 0.45. With G33A U41G A56G, the self-cleavage is 0.38. For the variant U31G C32U U49A A56G U72C, the self-cleavage was 0.09. Consider U31C C32U U43C, for which the self-cleavage was 0.14. U31C G33U A47C U72C: the self-cleavage came to 0.07. In the case of U31C U43G U48C U54C U60C U74C, the self-cleavage turned out to be 0.14. With C32A A45G U66C U76A U80C, the self-cleavage came out at 0.11. Turning to C32G A35G U48C, the self-cleavage is 0.07. For the variant U31C A65G U76C, the self-cleavage came to 0.24. For U31C G52C U54C A65U, the self-cleavage is 0.19.

As for G33A G52A U54G, the self-cleavage is 0.23. Then U31C G33A U51C U58A U72C, with 0.08; and C32U A35U U43C A56U, with 0.17; and G33A C34U U51A U78C, with 0.05. Then U31C U43C G46U U67C U72C, with 0.15. Consider G33A U43C A45G U49C C62U U72A, for which the self-cleavage turned out to be 0.06. Consider U31C C38A U41A A56U C71A, for which the self-cleavage stood at 0.06. As for U31G C59U U60G, the self-cleavage came out at 0.14. With C32U U58C A77U the figure was 0.13. For C32G U43C U48C, the self-cleavage turned out to be 0.32. On to C32A U43C G73C U74A, for which the self-cleavage is 0.21. Then U31C U41C U51C U69C, with 0.43; and U31C U72G A75C U80C, with 0.8; and C32U U48G U51C U80C, with 0.08. U31C C32A A45G A77G: the self-cleavage is 0.13. As to C32U A65G U67A, the self-cleavage worked out at 0.06. Then U31C G46U C62U, with 0.26; and U31C G55A A65G, with 0.2; and C32U C40U A45G, with 0.18.

U31C U43G U49A: the self-cleavage stood at 0.18. With U31C U58C U69C, the self-cleavage came to 0.16. With G33A C50A A77U, the self-cleavage came out at 0.26. C32U A35U A45G U58A U78C: the self-cleavage came out at 0.

As for U31C A75G U76A, the self-cleavage turned out to be 0.84. As to U31C U43C A57G A64G, the self-cleavage was 0.23.

Turning to U31C C40U U43C G63A, the self-cleavage stood at 0.19.

Consider U31C G52A U72A, for which the self-cleavage was 0.59.

On to U31C U54A U58C, for which the self-cleavage was 0.46.

For the variant G33A U48A U49G G53A U72A U76A, the self-cleavage is 0.06.

Consider G33A C40U U72A, for which the self-cleavage was found to be 0.09. With C32U A45U A64G C81A the figure was 0.08. In the case of G33A C39A U43C U69C, the self-cleavage is 0.17. C32G A35U A47U C59U: the self-cleavage turned out to be 0.06.

U31C U74C U78C U80A: the self-cleavage was 1.31. Then C32U U69A U78C U80C, with 0.06. Then U31G U43C A57G U76C, with 0.13; and U31C U41A G63A U69A, with 0.09. As for U31C U43C U49A U54C U60C U72A U80A, the self-cleavage turned out to be 0.04. Consider G33A A47G U49A, for which the self-cleavage was 0.11. Take C32U C40G U43A U49C U58C A65G: the self-cleavage worked out at 0.05.

For U31C C34U U69A, the self-cleavage was 0.11.

Turning to U31G G42C U80C, the self-cleavage came to 0.18. Turning to G33A A45U U58A U60C, the self-cleavage came to 0.13. Consider U31C U43C U54C U60C, for which the self-cleavage came out at 0.16. Then U31G U41A U49C, with 0.08. For G33A U41C U51C A56G U58C U72A, the self-cleavage was 0.07. As to C32U A45G A75G, the self-cleavage was determined as 0.15. Take G33A A57G A77G: the self-cleavage worked out at 0.21. Then C32G A56G U69C, with 0.08; and U31C U41A A45U U78C, with 0.13.

On to G33A C40A G42U G63A A65U, for which the self-cleavage worked out at 0.09. On to C32U C40U A56G, for which the self-cleavage is 0.39. Regarding U31G U72C A77U, the self-cleavage is 0.66.

On to C32A U43A A47U, for which the self-cleavage stood at 0.24. Turning to G33A A57U U72A A75U, the self-cleavage was found to be 0.13.

Turning to U31C U41C U72A, the self-cleavage came to 0.43. Turning to C32U A35U U60A, the self-cleavage worked out at 0.12.

For the variant U31C U58C U60C A64G A65G, the self-cleavage was determined as 0.25. For G33A A56G U80C, the self-cleavage was determined as 0.1. With U31G A35G U41A U67C, the self-cleavage is 0.11. For U31C G53A G55A, the self-cleavage stood at 0.56.

Turning to U31C U51A A56G, the self-cleavage was 0.36. On to U31C U54C U67C C68U, for which the self-cleavage came out at 0.16.

In the case of U31C U41C A45U U72C G73C U78A, the self-cleavage was 0.39. Then C32U G46U C62U U80C, with 0.03; and C32U C71G U80G, with 0.16; and U31G U43A U48C C59A U60A, with 0.1.

With C32G U49C U54C G63C G70A, the self-cleavage worked out at 0.06.

With C32A U41C A45G A56G U66C, the self-cleavage is 0.12. For the variant C32G G36C U43C A57G G63A A77C, the self-cleavage was 0.09. As for C32U A35U G53U U54A, the self-cleavage turned out to be 0.04. Take C32G U48C A56U: the self-cleavage stood at 0.12. With U31G A35G A65G U69A the figure was 0.32; with U31C U51C A64G U78A, 0.63. With G33A U41A U43A U49C C59U U76A, the self-cleavage amounted to 0.04. Then U31C U54G U58C U76A, with 0.26; and C32U U74C A75G, with 0.22; and U31C C37U A45G U66C, with 0.13. As for G33A A35U G36C C40U A57G, the self-cleavage was found to be 0.18.

Regarding C32A A45G U72C U76C, the self-cleavage was found to be 0.35.

With G33A A35U A56U A57G, the self-cleavage is 0.12. With U31G U49A U60C U74C U78C the figure was 0.08; with U31C U67G U76C, 0.5; with C32A U41C U69G, 0.07. As for U31C U41C U51A U58C, the self-cleavage amounted to 0.46.

As to C32U A35U U54A A56G, the self-cleavage is 0.1. For the variant U31C A77G U78C, the self-cleavage came out at 0.81. Consider C32A C50U U51G U54C U76C, for which the self-cleavage came out at 0.06. Consider C32A A35G G53C U78C, for which the self-cleavage was 0.69. Turning to G33A U58C U60C, the self-cleavage is 0.11.
